The nature of this assay: Cell-based coincidence reporter assay to measure PMP22 gene transcription in S16 Pmp22-F2sN cells - Confirmatory screen (AID 1508646). Conditions: S16 Schwann cells Pmp22-F2sN, dual luciferase, 24 h. In a few lines: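 S16 rat Schwann cells carrying FLuc-2A-NLuc reporter in Pmp22 3' UTR (500-1,000 cells/well) treated with pinned compounds for 24 h at 37C. Dual-luciferase reads: FLuc luminescence first, then NLuc after Stop&Glo.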

Where [1] appears, read: measured here: FLuc reporter channel.
Where [2] appears, read: measured here: NLuc reporter channel.

Here are results for 41 molecules from PubChem BioAssay (NCATS).

The list shows a part of the results. These are further read-outs of the screen, such as a control signal, another cell line or another target. No call is given for them. Most of these compounds were active or inconclusive in the main read-out, so they are no random draw. Potencies come from curve fits of mixed quality, noted in brackets.
Tags give direction and shape of the fitted curve.

Consider `COc1ccc2c(c1)-c1nc(NC(=O)c3cc(Cl)ccc3OC)sc1CC2`, for which the AC50 under setting [1] is 24.3 µM [falling, partial curve] and the half-maximal activity concentration (AC50) under setting [2] is 27.3 µM [falling, partial curve].

Turning to `O=C(CCc1nnc2n(Cc3ccccc3Cl)c(=O)c3ccccc3n12)Nc1ccccc1`, the AC50 runs as follows: under setting [1], 21.7 µM [falling, partial curve, poor fit]; under setting [2], 19.3 µM [falling, partial curve, poor fit].

Turning to `CCCCC(CC)CNC(=O)c1ccc2c(=O)n(Cc3ccc(OC)cc3)c(=O)[nH]c2c1` (configuration not stated), the AC50 is, setting by setting: under setting [1], 5.44 µM [falling, full curve]; under setting [2], 10.9 µM [falling, partial curve, poor fit].

For the molecule `COc1ccc(-c2noc(CSc3nnc(-c4ccncc4)n3-c3ccccc3)n2)cc1`, the AC50 under setting [1] is 6.85 µM [falling, full curve] and the concentration at half-maximal activity (AC50) under setting [2] was 5.44 µM [falling, full curve].

On to `Cc1ccc(C)c(N2CCN(CCCNC(=O)Cn3c(-c4cccs4)cc4ccccc43)CC2)c1`, for which the AC50 was 24.3 µM [falling, partial curve] under setting [1] and 27.3 µM [falling, partial curve] under setting [2].

Regarding `CC(=O)Nc1cccc(-c2nnc(SCC(=O)c3cc([N+](=O)[O-])ccc3Cl)o2)c1`, the concentration at half-maximal activity (AC50) reads like this: under setting [1], 17.2 µM [falling, partial curve]; under setting [2], 19.3 µM [falling, partial curve].

As to `COc1ccccc1-c1cc(C(F)(F)F)nc(S(=O)(=O)CCCC(=O)Nc2ccccc2F)n1`, the AC50 is, setting by setting: under setting [1], 6.11 µM [falling, full curve]; under setting [2], 7.69 µM [falling, full curve].

With `CCc1ccccc1NC(=O)Cn1c(=O)n(Cc2ccc3c(c2)OCO3)c(=O)c2ccc(C(=O)NC3CCCCC3)cc21`, the AC50 reads like this: under setting [1], 6.85 µM [falling, full curve]; under setting [2], 15.3 µM [falling, partial curve].

`Clc1cccc(-c2noc3ncnc(NC4CCCCC4)c23)c1`: the half-maximal activity concentration (AC50) is 7.69 µM [falling, partial curve] under setting [1] and 8.62 µM [falling, partial curve] under setting [2].

Turning to `CCCn1c(=N)c(C(=O)NCc2ccccc2)cc2c(=O)n3cccc(C)c3nc21`, the AC50 under setting [1] was 24.3 µM [falling, partial curve, poor fit] and the half-maximal activity concentration (AC50) under setting [2] was 27.3 µM [falling, partial curve, poor fit].

Take `CC(C)(C)c1ccc(C(=O)NCC(c2ccco2)S(=O)(=O)c2ccc(F)cc2)cc1` (configuration not stated): the AC50 was 17.2 µM [falling, partial curve] under setting [1] and 27.3 µM [falling, partial curve] under setting [2].

Regarding `CCOC(=O)N1CCN(Cc2nc3cc(NC(=O)c4ccc([N+](=O)[O-])cc4)ccc3n2C(C)C)CC1`, the AC50 is 27.3 µM [falling, single point] under setting [1] and 6.11 µM [falling, partial curve, poor fit] under setting [2].

With `Cc1oc(-c2ccc(Cl)cc2)nc1CN1CCC(C(=O)NCCCN2CCN(c3cccc(Cl)c3)CC2)CC1`, the half-maximal activity concentration (AC50) reads like this: under setting [1], 10.9 µM [falling, full curve]; under setting [2], 9.68 µM [falling, full curve].

In the case of `CC1=Nc2cc(C(=O)NC3CCCC3)ccc2Sc2ccc(C)cc21`, the half-maximal activity concentration (AC50) was 3.85 µM [falling, full curve, poor fit] under setting [1] and 2.43 µM [falling, full curve] under setting [2].

As for `CCC1CCCCN1CCCNC(=O)c1ccc2c(c1)N(Cc1ccccc1F)C(=O)c1ccccc1S2(=O)=O` (configuration not stated), the AC50 under setting [1] was 21.7 µM [falling, partial curve] and the AC50 under setting [2] is 24.3 µM [falling, partial curve].

In the case of `CCCNC(=O)c1cnn2c(C)c(Cc3c(C)cc(C)cc3C)c(C)nc12`, the AC50 under setting [1] is 27.3 µM [falling, partial curve] and the AC50 under setting [2] was 30.6 µM [falling, partial curve].

On to `COc1cc2ccccc2cc1C(=O)Nc1ccc2oc(-c3cccc(Cl)c3Cl)nc2c1`, for which the half-maximal activity concentration (AC50) was 12.2 µM [falling, full curve] under setting [1] and 12.2 µM [falling, full curve] under setting [2].

Consider `Cc1ccc(C)c(NC(=O)Cn2c(=O)n(Cc3ccccc3)c(=O)c3oc4ccccc4c32)c1`, for which the AC50 is 24.3 µM [falling, partial curve] under setting [1] and 24.3 µM [falling, partial curve] under setting [2].

In the case of `CCc1ccc(C(=O)c2cn(CC(=O)Nc3ccc4c(c3)OCO4)c3ccc(CC)cc3c2=O)cc1`, the AC50 runs as follows: under setting [1], 12.2 µM [falling, full curve]; under setting [2], 12.2 µM [falling, partial curve].

With `CCCN1C(=O)C(O)(CC(=O)c2ccc(CC)cc2)c2cc(Br)ccc21` (configuration not stated), the half-maximal activity concentration (AC50) reads like this: under setting [1], 24.3 µM [falling, partial curve, poor fit]; under setting [2], 21.7 µM [falling, partial curve, poor fit].

On to `Cc1cccc(N(C)S(=O)(=O)c2ccc(-c3cc(C)no3)s2)c1`, for which the AC50 was 9.68 µM [falling, full curve, poor fit] under setting [1] and 6.85 µM [falling, full curve, poor fit] under setting [2].

As to `Cc1ccc(Cl)cc1Nc1nn2c(=O)c3ccc(C(=O)NCc4cccs4)cc3nc2s1`, the concentration at half-maximal activity (AC50) is, setting by setting: under setting [1], 21.7 µM [falling, partial curve]; under setting [2], 21.7 µM [falling, partial curve].

As to `O=C(Nc1ccc(F)cc1Cl)C1CCN(c2ncnc3c2nc2n3CCCCC2)CC1`, the concentration at half-maximal activity (AC50) runs as follows: under setting [1], 9.68 µM [falling, full curve, poor fit]; under setting [2], 13.7 µM [falling, full curve, poor fit].

Regarding `COc1ccc(CCNc2ncnc3onc(C)c23)c(OC)c1`, the half-maximal activity concentration (AC50) reads like this: under setting [1], 3.06 µM [falling, full curve]; under setting [2], 4.85 µM [falling, full curve].

Take `CCCC(=O)N(c1ccc2oc(C)c(C(C)=O)c2c1)S(=O)(=O)c1ccc(CC)cc1`: the concentration at half-maximal activity (AC50) is 19.3 µM [falling, partial curve] under setting [1] and 21.7 µM [falling, partial curve, poor fit] under setting [2].

With `CCC1=Nc2cc(C(=O)NCCCOC(C)C)ccc2Sc2ccc(C)cc21`, the half-maximal activity concentration (AC50) is 13.7 µM [falling, partial curve, poor fit] under setting [1] and 9.68 µM [falling, partial curve] under setting [2].

Take `CCOc1ccc(-c2c(C)nn3c(C)c(C(=O)NCC(C)c4ccccc4)cnc23)cc1OCC` (configuration not stated): the AC50 is, setting by setting: under setting [1], 15.3 µM [falling, partial curve, poor fit]; under setting [2], 17.2 µM [falling, partial curve, poor fit].

For `COC(=O)c1ccc(CSc2nc3c([nH]c4ccccc43)c(=O)n2-c2cccc(Cl)c2)o1`, the AC50 reads like this: under setting [1], 6.11 µM [falling, full curve]; under setting [2], 6.11 µM [falling, full curve].

On to `CCCNC(=O)c1ccc2c(c1)N=C(CCC)c1ccccc1S2`, for which the AC50 under setting [1] is 4.32 µM [falling, full curve] and the half-maximal activity concentration (AC50) under setting [2] was 3.85 µM [falling, full curve].

Consider `O=C(COc1ccc(F)cc1)Nc1ccc2nc(SCC(=O)N3CCc4ccccc43)sc2c1`, for which the half-maximal activity concentration (AC50) is 4.32 µM [falling, full curve, poor fit] under setting [1] and 3.85 µM [falling, full curve, poor fit] under setting [2].

As for `Cc1cccc(-n2c(=O)c3c(c4cc(C)ccc4n3C)n(CC(=O)NCCC3=CCCCC3)c2=O)c1`, the half-maximal activity concentration (AC50) was 17.2 µM [falling, partial curve] under setting [1] and 17.2 µM [falling, partial curve] under setting [2].

With `O=C(Cn1c(=O)n(Cc2ccccc2)c(=O)c2sc3ccccc3c21)Nc1ccc(F)cc1`, the AC50 runs as follows: under setting [1], 15.3 µM [falling, partial curve, poor fit]; under setting [2], 21.7 µM [falling, partial curve].

In the case of `CSc1nc2sc3c(c2c(=O)n1-c1ccc(C)cc1)CCCC3`, the AC50 under setting [1] was 21.7 µM [falling, partial curve] and the AC50 under setting [2] is 21.7 µM [falling, partial curve].

Consider `CCOCCCn1c(=N)c(C(=O)NC2CCCC2)cc2c(=O)n3cccc(C)c3nc21`, for which the AC50 by setting is: under setting [1], 8.62 µM [falling, partial curve]; under setting [2], 17.2 µM [falling, partial curve].

In the case of `Cc1ccc(/C=C/c2onc(C)c2S(=O)(=O)N2CCC(C(=O)NCC(C)c3ccccc3)CC2)cc1` (configuration not stated), the AC50 is 24.3 µM [falling, single point] under setting [1] and 24.3 µM [falling, partial curve, poor fit] under setting [2].

Take `Cn1c(=O)c2cc(C(=O)NCCCN3CCN(c4ccc(F)cc4)CC3)sc2c2ccccc21`: the half-maximal activity concentration (AC50) was 24.3 µM [falling, partial curve] under setting [1] and 27.3 µM [falling, partial curve] under setting [2].

For `CCOc1ccccc1CNC(=O)CCn1c(=O)c2cccn2c2ccc(F)cc21`, the concentration at half-maximal activity (AC50) is, setting by setting: under setting [1], 15.3 µM [falling, full curve, poor fit]; under setting [2], 15.3 µM [falling, full curve, poor fit].

In the case of `CCc1ccccc1Nc1nn2c(=O)c3ccc(C(=O)Nc4cc(C)cc(C)c4)cc3nc2s1`, the concentration at half-maximal activity (AC50) is 12.2 µM [falling, partial curve] under setting [1] and 10.9 µM [falling, full curve] under setting [2].

Regarding `Cc1ccc(S(=O)(=O)c2nnn3c2nc(NC2CCCCCC2)c2sccc23)cc1C`, the AC50 under setting [1] is 13.7 µM [falling, partial curve] and the AC50 under setting [2] was 19.3 µM [falling, partial curve].

With `CCc1nnc(SCC(=O)N(C)c2ccccc2)c2cc3sccc3n12`, the AC50 under setting [1] is 21.7 µM [falling, partial curve] and the concentration at half-maximal activity (AC50) under setting [2] is 19.3 µM [falling, partial curve, poor fit].

Take `Cc1c(Cl)cccc1NC(=O)Cn1c(=O)n(Cc2ccco2)c(=O)c2sc3ccccc3c21`: the AC50 was 13.7 µM [falling, full curve] under setting [1] and 17.2 µM [falling, partial curve] under setting [2].
